Target: the molecule itself
Assay: SEC; final gel filtration step, HiLoad 16/600 Superdex 200 in 20 mM CHES, 100 nM ZnCl2, 1 mM TCEP, pH 10.0, 4°C; oligomer judged from retention time

B1: human TRIM5α (Homo sapiens) (natural protein)
chain: not shown
notes: also called TRIM5αhu; wild type TRIM5αhu
  stoichiometry N: 2
